# Data reported in the supplement of paper PMC8728848.
# This is one part of the list.
# B1: rAAL-2 (Agrocybe aegerita) (protein)
# chain: MTSNVITQDLPIPVASRGFADIVGFGLDGVVIGRNAVNLQPFLAVKNFAQNAGGWLTTKHVRLIADTTGTGKGDIVGFGNAGVYVSVNNGKNTFADPPKMVIANFGYDAGGWRVEKHLRYLADIRKIGRADIIGFGEKGVLVSRNNGGLNFGPATLVLKDFGYDAGGWRLDRHLRFLADVTGNGHLDIVGFGDKHVFISRNNGDGTFAPAKSVIDNFCIDAGGWKIGDHPRFVADLTGDGTADIIGCGKAGCWVALNNGGGVFGQVKLVINDFGTDKGWQAAKHPRFIADLTGNGRGDVVGFGNAGVYVALNNGDGTFQSAKLVLKDFGVQQGWTVSKHRRFVVDLTGDGCADIIGFGEKETLVSYNDGKGNFGPVKALTNDFSFSGGKWAPETTVCWMANLDSSRH
# Columns and labels:
# Experiment in all cases: glycan array binding signal (z-score within array); higher = stronger binding
# Details in all cases: glycan notation: IUPAC condensed, linker removed
# [1] = molecular target: Man(a1-2)Man(a1-6)[Man(a1-3)]Man(a1-6)[Man(a1-2)Man(a1-2)Man(a1-3)]Man
# In short: (§1)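 Negative Z-scores can be read as non-binding. The Z-score is calculated within each array and then averaged across arrays of one protein sequence at different concentrations or buffers and across linkers. Arrays, 3228 in all, were curated from the Consortium for Functional Glycomics database and kept only where the protein sequence was available.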
# [2] = molecular target: Man(a1-2)Man(a1-6)[Man(a1-3)]Man(a1-6)[Man(a1-2)Man(a1-2)Man(a1-3)]Man(b1-4)GlcNAc(b1-4)GlcNAc
# In short: as §1
# Man(a1-3)[Man(a1-6)]Man = molecular target: Man(a1-3)[Man(a1-6)]Man
# In short: as §1
# [3] = molecular target: Man(a1-3)[Man(a1-6)]Man(a1-6)[Man(a1-2)Man(a1-3)]Man(b1-4)GlcNAc(b1-4)GlcNAc
# In short: as §1
# [4] = molecular target: Man(a1-3)[Man(a1-6)]Man(a1-6)[Man(a1-3)]Man
# In short: as §1
# [5] = molecular target: Man(a1-3)[Man(a1-6)]Man(a1-6)[Man(a1-3)]Man(b1-4)GlcNAc(b1-4)GlcNAc
# In short: as §1
# [6] = molecular target: Man(a1-3)[Man(a1-6)]Man(b1-4)GlcNAc(b1-4)GlcNAc
# In short: as §1
# [7] = molecular target: Man(a1-3)[Man(a1-6)]Man(b1-4)GlcNAc(b1-4)[Fuc(a1-6)]GlcNAc
# In short: as §1
# Man(a1-6)Man = molecular target: Man(a1-6)Man
# In short: as §1
# Man(b1-4)GlcNAc = molecular target: Man(b1-4)GlcNAc
# In short: as §1
# MurNAc(b1-4)GlcNAc = molecular target: MurNAc(b1-4)GlcNAc
# In short: as §1
# Neu5Ac(a2-3)Gal = molecular target: Neu5Ac(a2-3)Gal
# In short: as §1
# [8] = molecular target: Neu5Ac(a2-3)Gal(b1-3)GalNAc
# In short: as §1
# [9] = molecular target: Neu5Ac(a2-3)Gal(b1-3)GalNAc(b1-3)Gal(a1-4)Gal(b1-4)Glc
# In short: as §1
# [10] = molecular target: Neu5Ac(a2-3)Gal(b1-3)GalNAc(b1-4)Gal(b1-4)Glc
# In short: as §1
# [11] = molecular target: Neu5Ac(a2-3)Gal(b1-3)GalNAc(b1-4)[Neu5Ac(a2-3)]Gal(b1-4)Glc
# In short: as §1
# [12] = molecular target: Neu5Ac(a2-3)Gal(b1-3)GalNAc(b1-4)[Neu5Ac(a2-8)Neu5Ac(a2-3)]Gal(b1-4)Glc
# In short: as §1
# [13] = molecular target: Neu5Ac(a2-3)Gal(b1-3)GalNAc6S
# In short: as §1
# [14] = molecular target: Neu5Ac(a2-3)Gal(b1-3)GlcNAc
# In short: as §1
# [15] = molecular target: Neu5Ac(a2-3)Gal(b1-3)GlcNAc(b1-2)Man
# In short: as §1
# [16] = molecular target: Neu5Ac(a2-3)Gal(b1-3)GlcNAc(b1-2)Man(a1-3)[GlcNAc(b1-4)][Neu5Ac(a2-3)Gal(b1-3)GlcNAc(b1-2)Man(a1-6)]Man(b1-4)GlcNAc(b1-4)GlcNAc
# In short: as §1
# [17] = molecular target: Neu5Ac(a2-3)Gal(b1-3)GlcNAc(b1-2)Man(a1-3)[Neu5Ac(a2-3)Gal(b1-3)GlcNAc(b1-2)Man(a1-6)]Man(b1-4)GlcNAc(b1-4)GlcNAc
# In short: as §1
# [18] = molecular target: Neu5Ac(a2-3)Gal(b1-3)GlcNAc(b1-2)[Neu5Ac(a2-3)Gal(b1-3)GlcNAc(b1-4)]Man(a1-6)[Neu5Ac(a2-3)Gal(b1-3)GlcNAc(b1-2)Man(a1-3)]Man(b1-4)GlcNAc(b1-4)GlcNAc
# In short: as §1
# [19] = molecular target: Neu5Ac(a2-3)Gal(b1-3)GlcNAc(b1-3)Gal(b1-3)GlcNAc
# In short: as §1
# [20] = molecular target: Neu5Ac(a2-3)Gal(b1-3)GlcNAc(b1-3)Gal(b1-4)GlcNAc
# In short: as §1
# [21] = molecular target: Neu5Ac(a2-3)Gal(b1-3)GlcNAc(b1-3)GalNAc
# In short: as §1
# [22] = molecular target: Neu5Ac(a2-3)Gal(b1-3)GlcNAc(b1-4)Gal(b1-4)Glc
# In short: as §1
# [23] = molecular target: Neu5Ac(a2-3)Gal(b1-3)GlcNAc(b1-6)GalNAc
# In short: as §1
# [24] = molecular target: Neu5Ac(a2-3)Gal(b1-3)GlcNAc6S
# In short: as §1
# [25] = molecular target: Neu5Ac(a2-3)Gal(b1-3)[Fuc(a1-4)]GlcNAc
# In short: as §1
# [26] = molecular target: Neu5Ac(a2-3)Gal(b1-3)[Fuc(a1-4)]GlcNAc(b1-3)Gal(b1-3)[Fuc(a1-4)]GlcNAc
# In short: as §1
# [27] = molecular target: Neu5Ac(a2-3)Gal(b1-3)[Fuc(a1-4)]GlcNAc(b1-3)Gal(b1-4)[Fuc(a1-3)]GlcNAc
# In short: as §1
# [28] = molecular target: Neu5Ac(a2-3)Gal(b1-3)[GlcNAc(b1-6)]GalNAc
# In short: as §1
# [29] = molecular target: Neu5Ac(a2-3)Gal(b1-3)[Neu5Ac(a2-3)Gal(b1-4)]GlcNAc
# In short: as §1
# [30] = molecular target: Neu5Ac(a2-3)Gal(b1-3)[Neu5Ac(a2-6)]GalNAc
# In short: as §1
# [31] = molecular target: Neu5Ac(a2-3)Gal(b1-3)[Neu5Ac(a2-6)]GlcNAc(b1-3)[Fuc(a1-3)[Gal(b1-4)]GlcNAc(b1-6)]Gal(b1-4)Glc
# In short: as §1
# [32] = molecular target: Neu5Ac(a2-3)Gal(b1-3)]Neu5Ac(a2-3)Gal(b1-4)]GlcNAc
# In short: as §1
# Neu5Ac(a2-3)Gal(b1-4)Glc = molecular target: Neu5Ac(a2-3)Gal(b1-4)Glc
# In short: as §1
binder,measurement,setting,value
B1,glycan array binding signal (z-score),[1],-0.274
same,glycan array binding signal (z-score),[2],0.05
same,glycan array binding signal (z-score),Man(a1-3)[Man(a1-6)]Man,-0.295
same,glycan array binding signal (z-score),[3],0.154
same,glycan array binding signal (z-score),[4],-0.208
same,glycan array binding signal (z-score),[5],-0.202
same,glycan array binding signal (z-score),[6],-0.239
same,glycan array binding signal (z-score),[7],-0.087
same,glycan array binding signal (z-score),Man(a1-6)Man,-0.177
same,glycan array binding signal (z-score),Man(b1-4)GlcNAc,-0.144
same,glycan array binding signal (z-score),MurNAc(b1-4)GlcNAc,-0.168
same,glycan array binding signal (z-score),Neu5Ac(a2-3)Gal,-0.244
same,glycan array binding signal (z-score),[8],-0.184
same,glycan array binding signal (z-score),[9],-0.228
same,glycan array binding signal (z-score),[10],0.227
same,glycan array binding signal (z-score),[11],-0.236
same,glycan array binding signal (z-score),[12],-0.103
same,glycan array binding signal (z-score),[13],-0.202
same,glycan array binding signal (z-score),[14],-0.333
same,glycan array binding signal (z-score),[15],-0.53
same,glycan array binding signal (z-score),[16],-0.083
same,glycan array binding signal (z-score),[17],-0.408
same,glycan array binding signal (z-score),[18],-0.014
same,glycan array binding signal (z-score),[19],-0.277
same,glycan array binding signal (z-score),[20],-0.374
same,glycan array binding signal (z-score),[21],-0.061
same,glycan array binding signal (z-score),[22],-0.285
same,glycan array binding signal (z-score),[23],-0.419
same,glycan array binding signal (z-score),[24],0.016
same,glycan array binding signal (z-score),[25],-0.392
same,glycan array binding signal (z-score),[26],-0.279
same,glycan array binding signal (z-score),[27],-0.151
same,glycan array binding signal (z-score),[28],-0.225
same,glycan array binding signal (z-score),[29],-0.181
same,glycan array binding signal (z-score),[30],-0.092
same,glycan array binding signal (z-score),[31],-0.107
same,glycan array binding signal (z-score),[32],-0.256
same,glycan array binding signal (z-score),Neu5Ac(a2-3)Gal(b1-4)Glc,-0.151
